Results as given in publication PMC7698926 (International Journal of Molecular Sciences, 2020).
Where a SMILES comes first, the peptide text is derived from it.

Tested on: X. oryzae pv. oryzae
Type: cell-based, Xanthomonas oryzae pv. oryzae
Settings: peptide 1 × MIC, KCl 1.5, 3, 4.5 mM, CaCl2 1.25, 2.5, 5 mM, MgCl2 0.5, 1, 2 mM, OD600

CC[C@H](C)[C@H](NC(=O)[C@H](CO)NC(=O)[C@H](CCCCN)NC(=O)[C@H](CCCNC(=N)N)NC(=O)[C@@H](NC(=O)[C@H](CCC(=O)O)NC(=O)[C@H](Cc1ccc(O)cc1)NC(=O)[C@H](CS)NC(=O)[C@H](Cc1c[nH]cn1)NC(=O)[C@@H](NC(=O)[C@H](Cc1c[nH]cn1)NC(=O)[C@H](CCCCN)NC(=O)[C@H](CCC(=O)O)NC(=O)[C@H](CO)NC(=O)[C@H](CO)NC(=O)[C@@H](NC(=O)[C@H](CS)NC(=O)[C@H](CC(N)=O)NC(=O)[C@H](Cc1ccc(O)cc1)NC(=O)[C@@H](NC(=O)[C@H](Cc1c[nH]cn1)NC(=O)[C@@H](NC(=O)[C@H](Cc1ccc(O)cc1)NC(=O)[C@@H](NC(=O)[C@H](CC(=O)O)NC(=O)[C@@H](NC(=O)[C@@H](N)CC(C)C)C(C)C)[C@@H](C)CC)[C@@H](C)O)C(C)C)[C@@H](C)O)[C@@H](C)O)[C@@H](C)CC)C(=O)N[C@@H](CO)C(=O)O [OrR214] (H-LVDIYTHVYNCTSSEKHTHCYEIRKSIS-OH)
antibacterial activity in K+, Ca2+ and Mg2+ salt solutions: slightly inhibited
